# Assay results as given in article PMC12136788.
# This is one part of the list.
# B1: chr1:53952023:53952124:+|CDS|ENSG00000116212|msi1|FALSE|unique (ssRNA)
# RNA: GGGAGUUCUACAGUCCGACGAUCUACAUGCGAGAAAAUGGGCAGCUGCACAUGGUCAAUCUGGCUCUGGAUGGUGUCAGGAGUAGCCUGCAGAAGCCAAGGCCUUUCAGACUGUUCCCCAAAGGCUUUUCUGUGGAGCUUUGCCAACAGAGGAUUGAGCAUCA
# B2: chr1:42696720:42696786:+|CDS|ENSG00000065978|msi1_unk|FALSE|overlapping (ssRNA)
# RNA: GGGAGUUCUACAGUCCGACGAUCCCAGUUCAAGGCAGUAAAUAUGCAGCAGACCGUAACCAUUAUAGACGCUAUCCACGUCGUAGGGGUCCUCCACGCAAUUACCAGCAAAAUUACCAGAAUAGUGAGAGUGGGGAAAAGAACCAACAGAGGAUUGAGCAUCA
# B3: ENSG00000124766:be:win_1851|3pUTR|ENSG00000124766|bound_else_gene|NA|bound_elsewhere_windowed (ssRNA)
# RNA: GGGAGUUCUACAGUCCGACGAUCAGAGACUUGAAGGAGUCUCCCCCUUCCUGCAUCACCACCUUGGUUUUGUUUUAUUUUGCUUCUUGGUCAAGAAAGGAGGGGAGAACCCAGCGCACCCCUCCCCCCCUUUUUUUAAACGCGCAACAGAGGAUUGAGCAUCA
# B4: chr1:66363429:66363538:+|CDS|ENSG00000184588|unk|total|mutant (ssRNA)
# RNA: GGGAGUUCUACAGUCCGACGAUCAGACCUCCUAAAGACAUUCAGAAUCUCAUCUGACACAUUUAUAACCUACAUGAUGACUUCCGAAGACCAUUACCAUUCUGACGUGGCAUAUCACAACAGCCUGCACGCUGCUGAUGCCGCCAACAGAGGAUUGAGCAUCA
# B5: chrX:56565067:56565173:+|CDS|ENSG00000188021|unk|FALSE|unique (ssRNA)
# RNA: GGGAGUUCUACAGUCCGACGAUCAGAAGCAUGAUGCAGUCGCUGAGCCAGAAUCCAGAUUUGGCUGCACAGAUGAUGCUGAAUAGCCCGCUGUUUACUGCAAAUCCUCAGCUGCAGGAGCAGAUGCGGCCACAGCUCCCAGCCCAACAGAGGAUUGAGCAUCA
# B6: chr2:96252317:96252350:-|3pUTR|ENSG00000135956|msi1_unk|total|mutant (ssRNA)
# RNA: GGGAGUUCUACAGUCCGACGAUCGUGUCCCCUGCUGAGCUGAAAAGGAAAUGGAUUCCAAUCUCUUCCAACCUUUAAGGUGACCGACCGUUUGAGCAAGACUGGAGAAUGGACAACACUAUGAAGCUGUGGCCCGAAAGGGACCAACAGAGGAUUGAGCAUCA
# B7: chr14:55188946:55189174:-|CDS|ENSG00000126787|unk|FALSE|unique (ssRNA)
# RNA: GGGAGUUCUACAGUCCGACGAUCAUUGCUCAUAGGAAAUCACUGUCUCAGAAAGAAAAUAGACAUAAGGAAUACGAACGAAAUAGACACUUUGGUUUGAAAGAUGUAAACAUUCCAACCUUGGAAGGUAGAAUUCUUGUUGAACAACAGAGGAUUGAGCAUCA
# B8: chr6:43186014:43186115:+|CDS|ENSG00000112659|msi1|FALSE|unique (ssRNA)
# RNA: GGGAGUUCUACAGUCCGACGAUCCUGCUUUUCUCCUUGGUGAAGCGCUACCUUUGUGUCACGUCCCUCCUGGAUCAGCUGAAUAGCAGUCCAGAGCUGGGAGCUGGAGACCAAAGCUCCCCAUGUGCCACAAGAGAGAAAAGCCAACAGAGGAUUGAGCAUCA
# B9: chr22:36489384:36489485:-|3pUTR|ENSG00000100350|msi1|total|mutant (ssRNA)
# RNA: GGGAGUUCUACAGUCCGACGAUCGUGUCACUUGCCACACACUGCCUCAACCUCCCCGCCCCAUUUUCAGCAGGGUUUGGGCUCCGCUACAGAGCCCAAGAGGGUCAGCCCUGCUUAUCAUCACCGGCCCAGCAGGCUGAUCUCCAACAGAGGAUUGAGCAUCA
# B10: chrX:12823584:12823685:+|3pUTR|ENSG00000101911|unk|FALSE|unique (ssRNA)
# RNA: GGGAGUUCUACAGUCCGACGAUCUGACUUAAAGGUAAUCAUUUCAGCUAAGAUUAAAUUUAAAGCCUAAGAAUGUAUAGAGCUAGUUUUAAAAUAAUGAUCUCAGAUUUUUAAAAAGGAUAUAGGAACCUGCAUUGUCAUUCUCAACAGAGGAUUGAGCAUCA
# B11: chr11:46743636:46743700:-|3pUTR|ENSG00000175216|msi1_unk|total|mutant (ssRNA)
# RNA: GGGAGUUCUACAGUCCGACGAUCUUGUAAAAUUGUCCUAAUCUUUCCCCGCUUUUUAACCGUUAAUAUCCGAAACUCUUUAACCGUUUUCCUUUCAGUUUGUGAGCUCUUCUCUGUCGCCCUGAAGGGUCACUGUAUUCUGUACAACAGAGGAUUGAGCAUCA
# B12: chr13:52475664:52475769:+|3pUTR|ENSG00000136108|msi1|total|mutant (ssRNA)
# RNA: GGGAGUUCUACAGUCCGACGAUCGCGUCCCUUGGACUGCCUGUUGAUUGAUGGAAAGUGUCUGCACUGACACUUUUCGUCAGCCGUCUGCCGUUUCGUGGCCUCUUUUGAUUAUAACUGGGGUCACCAAGAAGGUUUACUUAACAACAGAGGAUUGAGCAUCA
# B13: chr12:122271799:122271900:-|3pUTR|ENSG00000130779|msi1|total|mutant (ssRNA)
# RNA: GGGAGUUCUACAGUCCGACGAUCGUAUAAAACACCUAAAUAACCAAUCUACAAUCUCCCUUCACAAGUUUUUUUACUGUUUUCCGAUGAAUGUACGAUGAGAAAUUCAACGUUAAUAAUUCUGGAUUUUCUUAUCACAAAAAACAACAGAGGAUUGAGCAUCA
# B14: chr1:228098150:228098251:+|3pUTR|ENSG00000143761|msi1_unk|FALSE|overlapping (ssRNA)
# RNA: GGGAGUUCUACAGUCCGACGAUCGCACCGUGCUGUAAAUGUGGCAGACGCAGCCUGCGGCCAGGCUUUUUAUUUAAUGUAAAUAGUUUUUGUUUCCAAUGAGGCAGUUUCUGGUACUCCUAUGCAAUAUUACUCAGCUUUUUUCAACAGAGGAUUGAGCAUCA
# B15: ENSG00000070961:be:win_1151|CDS|ENSG00000070961|bound_else_gene|NA|bound_elsewhere_windowed (ssRNA)
# RNA: GGGAGUUCUACAGUCCGACGAUCCAGUUAUCAUUCUAGUAUUAUAUUUUGUCAUUGACACCUUCUGGGUUCAGAAAAGACCAUGGCUUGCUGAGUGCACACCAAUUUAUAUACAAUACUUUGUGAAGUUCUUCAUUAUUGGAGCAACAGAGGAUUGAGCAUCA
# B16: chr8:123014585:123014686:-|3pUTR|ENSG00000136986|msi1|FALSE|unique (ssRNA)
# RNA: GGGAGUUCUACAGUCCGACGAUCGCAGCUAACAUGGGUUAGGUUUAAACCAUGGGGGAUGCAACCCCUUUGCGUUUCAUAUGUAGGCCUACUGGCUUUGUGUAGCUGGAGUAGUUGGGUUGCUUUGUGUUAGGAGGAUCCAGACAACAGAGGAUUGAGCAUCA
# B17: ENSG00000107863:be:win_5201|CDS|ENSG00000107863|bound_else_gene|NA|bound_elsewhere_windowed (ssRNA)
# RNA: GGGAGUUCUACAGUCCGACGAUCUUGAUGUUAUGAAAAAAGGAAAGUCAACUGGGAGUUUACUGACACCCACCAGAGGCGAAUCCGAAAAACAGGAACCCACAUGGAAAACGAAAAUAGCAGAUCGGUUAAAACUGAGACCCACAACAGAGGAUUGAGCAUCA
# B18: chr15:65058426:65058617:-|CDS|ENSG00000103710|control|control|control (ssRNA)
# RNA: GGGAGUUCUACAGUCCGACGAUCCUGAACUGGGCCCAUGCCUUCCUGGUGGUGUACAGCGUCGACAGCCGCCAGAGCUUUGAUAGCAGCAGCAGCUACCUGGAGCUGCUUGCCUUGCACGCGAAGGAGACACAGCGCAGCAUCCAACAGAGGAUUGAGCAUCA
# B19: ENSG00000198589:be:win_6301|CDS|ENSG00000198589|bound_else_gene|NA|bound_elsewhere_windowed (ssRNA)
# RNA: GGGAGUUCUACAGUCCGACGAUCGAUCCUAACUUCAAAAAAAUCGACCCCAAGAUCUUGGCAUAUACAGAAGGGCUGCAUGGAAAAUGGCUGUUCACAGAGAUACGAUCAAUCUUUUCUCGUCGUUAUCUUUUGCAAAAUACACAACAGAGGAUUGAGCAUCA
# B20: chr22:41117408:41117517:+|CDS|ENSG00000100393|unk|FALSE|unique (ssRNA)
# RNA: GGGAGUUCUACAGUCCGACGAUCCCAGGUCAAGUCAUGGCCAGCCAGGCCCAACAGAGCAGUCCUGGAUUAGGUUUGAUAAAUAGCAUGGUCAAAAGCCCAAUGACACAGGCAGGCUUGACUUCUCCCAACAUGGGGAUGGGCCAACAGAGGAUUGAGCAUCA
# B21: chr11:118657315:118658441:-|three_prime_utr|ENSG00000118094|control|control|control (ssRNA)
# RNA: GGGAGUUCUACAGUCCGACGAUCCCUCCCAGCCUGUCCUCAGAGCGAAGUGGAGGGCAGGGUCACGACCUGGAGGUCAUGGGUAGGGGCCUAGCUCCCUCCUGGAACCUUGAAUAGGGUGGAAAUCCUGCUCUGGAGGGAAGACAACAGAGGAUUGAGCAUCA
# B22: chr8:97725557:97725573:+|3pUTR|ENSG00000147649|msi1_unk|FALSE|overlapping (ssRNA)
# RNA: GGGAGUUCUACAGUCCGACGAUCGUUGACUUUAAAAAUGAAAUCAUUCACAAACUUUUGGUAUAUGAUGGAGAAUGAAAAACUAGAGUCAGACAGCUUUAAUUGACAUUGUCAACACCUCCAGUUAUCAGGAAUACAUUUUUUCAACAGAGGAUUGAGCAUCA
# Biological target: MSI1 full-length (mouse, UniProt Q61474 1-362)
# Chain of UniProt Q61474 (Q61474 whole entry): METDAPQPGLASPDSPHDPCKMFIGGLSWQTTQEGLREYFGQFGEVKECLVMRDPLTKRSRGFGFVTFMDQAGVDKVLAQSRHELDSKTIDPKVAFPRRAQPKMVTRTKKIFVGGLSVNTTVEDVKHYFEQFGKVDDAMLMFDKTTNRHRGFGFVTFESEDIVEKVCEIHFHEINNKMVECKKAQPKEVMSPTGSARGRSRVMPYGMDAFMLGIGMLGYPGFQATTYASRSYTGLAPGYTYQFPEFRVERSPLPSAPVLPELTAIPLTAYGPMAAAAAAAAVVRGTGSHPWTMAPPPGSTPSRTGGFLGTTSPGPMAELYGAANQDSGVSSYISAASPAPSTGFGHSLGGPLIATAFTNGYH
# Experiment: nsRBNS (natural sequence RNA bind-n-seq); RBNS binding buffer (assumed for nsRBNS): 25 mM Tris pH 7.5, 150 mM KCl, 3 mM MgCl2, 0.01% Triton X-100, 500 ug/ml BSA, 20 U/ml SUPERase-In, 4 C; UNK is unkempt and MSI1 is Musashi-1; names of the RNAs are library labels; protein concentration not given here; high values mean tight binding
row,Binder,binding signal [enrichment R]
1,B1,0.863
2,B2,2.75
3,B3,0.505
4,B4,0.448
5,B5,0.328
6,B6,0.439
7,B7,1.76
8,B8,0.311
9,B9,0.593
10,B10,9.66
11,B11,0.866
12,B12,0.245
13,B13,0.881
14,B14,1.63
15,B15,8.08
16,B16,0.688
17,B17,0.386
18,B18,0.377
19,B19,0.245
20,B20,1.17
21,B21,0.327
22,B22,0.544
